In publication PMC9511441, “Semisynthetic teicoplanin derivatives with dual antimicrobial activity against SARS-CoV-2 and multiresistant bacteria” (Scientific Reports, 2022):

Key:
[1] = molecular target: T1, SARS-CoV-2 spike receptor-binding domain (S-RBD) and human ACE2 receptor (hACE2) (Homo sapiens, UniProt Q9BYF1); assay: biochemical; settings: read-out: ACE2-spike interaction % inhibition at 100 µM
[2] = molecular target: T1, SARS-CoV-2 spike receptor-binding domain (S-RBD) and human ACE2 receptor (hACE2)

Compound | inhibition at 100 µM [1] | ACE2-spike interaction % inhibition at 100 µM [2]
O=C(O)CCC(F)(F)C(F)(F)C(F)(F)C(F)(F)C(F)(F)C(F)(F)C(F)(F)C(F)(F)F [Compound 14] | 5.7 ± 5.3% | 
N=C(N)NCCSCCCOc1cc(C(=O)OCc2ccccc2)cc(OCCCSCCNC(=N)N)c1OCCCSCCNC(=N)N [Compound 24] | 7.4 ± 12% | 
teicoplanin [reference compound] |  | 34 ± 7%
